From the supplement of paper PMC4967469
Lines with a small IC50 respond at low doses; where the fit passes the top or lowest dose, that dose stands as a limit. The AUC spans the tested range (256-fold, ending at the top dose) of the same fit; it is 1 without any effect and falls as sensitivity rises. For some of these results: The top dose, if marked as inferred, was calculated from the reported fits.

Tests used:
Assay in all cases: Viability of human cancer cell lines after 72 h of drug (GDSC screen)
Bosutinib = compound: COc1cc(Nc2c(C#N)cnc3cc(OCCCN4CCN(C)CC4)c(OC)cc23)c(Cl)cc1Cl [Bosutinib]; details: top dose 2 µM
Method: (§1)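 Human cancer cell lines in 384-well plates, medium with 10% serum, drug for 72 h over a 256-fold dose range (nine 2-fold or five 4-fold steps up to the top dose). Adherent lines were fixed and stained with the nucleic acid dye Syto60, suspension lines read with resazurin; signal relative to control wells, capped at 0 and 100%. One two-parameter sigmoid per drug and line, fitted in a mixed model over all curves with the slope shared within a line.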

IOX2 = compound: O=C(O)CNC(=O)c1c(O)c2ccccc2n(Cc2ccccc2)c1=O [IOX2]; details: top dose 0.1 µM; top dose inferred
Method: as §1

NVP-BHG712 = compound: Cc1ccc(C(=O)Nc2cccc(C(F)(F)F)c2)cc1Nc1nc(-c2cccnc2)nc2c1cnn2C [NVP-BHG712]; details: top dose 10.24 µM; top dose inferred
Method: as §1

Cell Line	AUC (Bosutinib)	IC50 (Bosutinib)	AUC (IOX2)	IC50 (IOX2)	AUC (NVP-BHG712)	IC50 (NVP-BHG712)
SUP-B8 (B-cell leukaemia, suspension)	0.81	1040 nM	0.988	> 100 nM	–	–
OVCA420 (ovary, adherent)	0.902	> 2000 nM	0.979	> 100 nM	0.948	> 10200 nM
NCI-H322M (lung adenocarcinoma, suspension)	0.923	> 2000 nM	0.975	> 100 nM	0.974	> 10200 nM
HOP-62 (lung adenocarcinoma, adherent)	0.959	> 2000 nM	0.964	> 100 nM	0.906	> 10200 nM
COR-L311 (small cell lung carcinoma, suspension)	–	–	–	–	0.873	> 10200 nM
EMC-BAC-1 (lung adenocarcinoma, adherent)	0.827	1460 nM	0.972	> 100 nM	0.822	7120 nM
U251 (glioma, adherent)	0.988	> 2000 nM	0.94	> 100 nM	0.912	> 10200 nM
MKN7 (stomach, adherent)	0.948	> 2000 nM	0.982	> 100 nM	–	–
HT-29 (large intestine, adherent)	0.939	> 2000 nM	0.986	> 100 nM	0.772	3950 nM
YMB-1-E (breast, adherent)	–	–	–	–	0.948	> 10200 nM
CRO-AP2 (B-cell lymphoma, suspension)	0.94	> 2000 nM	0.989	> 100 nM	–	–
PC-3 (prostate, adherent)	–	–	0.981	> 100 nM	0.979	> 10200 nM
SNU-175 (large intestine, suspension)	–	–	–	–	0.875	9030 nM
M14 (melanoma, adherent)	0.917	> 2000 nM	0.974	> 100 nM	0.556	916 nM
KARPAS-1106P (B-cell lymphoma, suspension)	0.893	1650 nM	0.993	> 100 nM	–	–
A549 (lung adenocarcinoma, adherent)	–	–	0.98	> 100 nM	–	–
NCI-H1650 (lung adenocarcinoma, adherent)	–	–	0.979	> 100 nM	–	–
KATOIII (stomach, semi-adherent)	0.895	> 2000 nM	0.989	> 100 nM	–	–
SN12C (kidney, adherent)	–	–	0.983	> 100 nM	0.986	> 10200 nM
EW-22 (Ewing sarcoma, adherent)	0.955	> 2000 nM	0.987	> 100 nM	–	–
Jurkat (T-cell leukaemia, suspension)	0.976	> 2000 nM	0.992	> 100 nM	–	–
MHH-CALL-2 (B-cell leukaemia, suspension)	0.993	> 2000 nM	0.994	> 100 nM	–	–
CML-T1 (chronic myeloid leukaemia, suspension)	0.632	270 nM	0.991	> 100 nM	–	–
H2810 (mesothelioma, adherent)	–	–	0.935	> 100 nM	–	–

Cell Line	AUC (Bosutinib)	IC50 (Bosutinib)	AUC (IOX2)	IC50 (IOX2)	AUC (NVP-BHG712)	IC50 (NVP-BHG712)
MOLM-16 (acute myeloid leukaemia, suspension)	0.834	1090 nM	0.988	> 100 nM	–	–
HCC-366 (non-small cell lung carcinoma, adherent)	0.973	> 2000 nM	0.986	> 100 nM	–	–
MOLT-16 (T-cell lymphoblastic leukaemia, suspension)	0.725	465 nM	0.991	> 100 nM	–	–
RH-18 (rhabdomyosarcoma, adherent)	0.985	> 2000 nM	0.983	> 100 nM	–	–
NCI-H2066 (small cell lung carcinoma, adherent)	–	–	0.944	> 100 nM	–	–
DIFI (large intestine, adherent)	0.731	586 nM	0.973	> 100 nM	–	–
786-0 (kidney, adherent)	–	–	0.987	> 100 nM	0.928	> 10200 nM
NCI-H1105 (small cell lung carcinoma, suspension)	0.993	> 2000 nM	0.993	> 100 nM	–	–
IGROV-1 (ovary, adherent)	0.694	571 nM	0.968	> 100 nM	–	–
NCI-H146 (small cell lung carcinoma, suspension)	0.995	> 2000 nM	0.995	> 100 nM	–	–
MEL-HO (melanoma, adherent)	0.915	> 2000 nM	0.974	> 100 nM	–	–
JEKO-1 (B-cell lymphoma, suspension)	0.75	628 nM	0.986	> 100 nM	–	–
COR-L32 (small cell lung carcinoma, suspension)	–	–	0.954	> 100 nM	–	–
BT-549 (breast, adherent)	0.877	> 2000 nM	0.971	> 100 nM	–	–
NCI-H508 (large intestine, semi-adherent)	0.894	> 2000 nM	0.972	> 100 nM	–	–
CL-40 (large intestine, adherent)	0.898	> 2000 nM	0.969	> 100 nM	–	–
JHOS-4 (ovary, adherent)	0.978	> 2000 nM	–	–	–	–
SNU-1040 (large intestine, adherent)	–	–	0.966	> 100 nM	0.892	> 10200 nM
MIA-PaCa-2 (pancreas, adherent)	0.776	876 nM	–	–	0.977	> 10200 nM
NCI-H929 (myeloma, suspension)	0.931	> 2000 nM	0.987	> 100 nM	–	–
BALL-1 (B-cell leukaemia, suspension)	0.946	1970 nM	0.997	> 100 nM	–	–
SK-GT-2 (stomach, adherent)	0.812	1150 nM	0.974	> 100 nM	–	–
HCT-116 (large intestine, adherent)	–	–	0.986	> 100 nM	0.722	2620 nM
